Out of some 46,000 compounds screened, about 60 (0.1%) were called active. About 3% were inconclusive and are not listed. The call rests on the fitted dose curve; in most records, active means well fitted inhibition curve with a large enough effect; inconclusive means small, poorly fitted or top-dose-only effect; inactive means no such curve, though single readings can be large or run the other way. The list shows a part of the results.
assay: Primary qHTS assay for Inhibitors of ovarian cancer metastasis using an organotypic tumor microenvironment (TME) model.; further: nearly all actives have a fitted effect of over 65% in size;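 on activity change, negative = inhibition: plate controls were DMSO wells for no effect and tomatine positive control wells for full effect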; conditions: SKOV3ip1-GFP adhesion/invasion on 3D omental model, fluorescence; series mostly up to 45.8 µM; activity change, negative = inhibition: at the top concentration
Method in brief: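 Adhesion/invasion was scored as fixed GFP-labeled SKOV3ip1 cell counts (488/509 nm), normalized to DMSO and tomatine controls. Cancer cells in serum-free medium, with four compound doses (0.36-46 umol/L), sat 2 hr at RT then 16 hr at 37 C on a 48 hr fibroblast/mesothelial/ECM culture.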

outcome, inactive:
COc1ccc(NC(=O)c2cnc(Nc3ccc(C)c(Cl)c3)c3ccccc23)cc1OC
Cc1ccc(NC(=O)Cn2nc(C)n3cccc3c2=O)c(C)c1
COc1ccc(-c2nnc3n2N(C(C)=O)C(c2ccc(Cl)c(Cl)c2)=C(C(C)=O)S3)cc1
Cc1cccc(N2C(=O)CSC23C(=O)N(CC(=O)NCc2ccccc2Cl)c2ccccc23)c1 (centres undefined)
Cc1ccc(NC(=O)Nc2sc3nc4n(c(=O)c3c2C)CCC(C)CC4)c(Cl)c1 (centres undefined)
CCOc1ccc(NC(=O)Cn2c(=O)c(CNc3ccc(CC)cc3)cc3cc4c(cc32)OCO4)cc1
CCN(C(=O)Cn1cnc2onc(-c3ccc(F)cc3)c2c1=O)c1ccc(OC)cc1
CCOc1ccc(Nc2nnc(-n3nc(C)cc3C)c3ccccc23)cc1
COc1ccc(CN2CCc3c(c(=O)n4ncc(C(=O)N5CCN(c6ccc(F)cc6)CC5)c4n3C)C2)cc1
COc1ccc(-c2cc(C)no2)cc1S(=O)(=O)NCc1cccs1
Cc1nc(-c2cccc(NC(=O)Nc3ccccc3C(F)(F)F)c2)no1
Cc1ccc2cccc(NC(=O)COc3ccccc3Cl)c2n1
Cc1ccc(-c2nc(CS(=O)CC(=O)N3CCN(c4cccc(Cl)c4)CC3)c(C)o2)cc1 (centres undefined)
CCCOc1cccc(C2c3c(oc4ccccc4c3=O)C(=O)N2c2nncs2)c1 (centres undefined)
COc1cccc(C(=O)c2cn(CC(=O)NCc3ccccc3Cl)c3nc(C)ccc3c2=O)c1
CCc1ccc(NC(=O)CCCc2nnc3n(CC(C)C)c(=O)c4sccc4n23)cc1
Cc1nnc(NC(=O)CSc2nccn2Cc2ccc(F)cc2)s1

Activity change, negative = inhibition, inactive:
Cc1ccc(C)c(Cn2c(=O)cc(C)c3c(C)nn(-c4cccc(F)c4)c32)c1 8.13%
COc1ccccc1NC(=O)C1=C(C)Nc2nnnn2C1c1cc(Br)c(O)c(OC)c1 (centres undefined) 22.4%
COc1cccc(-n2c(=O)c3c(C)c(C)sc3n(CC(=O)NCc3ccccc3)c2=O)c1 -9.74%
COc1ccc(-c2nsc(NC(=O)C(C)Oc3ccc(Cl)c(C)c3)n2)cc1 (centres undefined) -12.5%
N[C@@H](CC(=O)N1CCn2c(nnc2C(F)(F)F)C1)Cc1cc(F)c(F)cc1F -2.01%
COc1ccc(-c2nc(SCc3cc(=O)c4cc(C)ccc4[nH]3)n[nH]2)cc1 14.9%
COc1ccc(-c2nc(C)c(CCNC(=O)C(=O)Nc3cc(C)cc(C)c3)s2)cc1OC -0.728%
COc1ccc(NC(=O)c2ccc3c(SCC(=O)O)c4c(nc3c2)CCC4)c(OC)c1 -10%
CCOc1ccccc1N1CC(c2nc3ccccc3n2Cc2c(C)cc(C)cc2C)CC1=O (centres undefined) -1.63%
Cc1sc2ncn(CC(=O)N3CCN(c4cccc(Cl)c4)CC3)c(=O)c2c1S(=O)(=O)N1CCN(c2ncccn2)CC1 67.1%
CCCN(CCC)CCNC(=O)c1ccc2c(c1)NC(=O)C(CS(=O)(=O)Cc1cccc(Br)c1)N2 (centres undefined) 6.73%
Cc1cccc(N2CCN(C(=O)c3cc4c(=O)n(C)c5ccccc5c4s3)CC2C)c1 (centres undefined) 8.07%
Cc1ccccc1C(=O)Nc1c(C)nc(Nc2ccccc2)nc1Nc1ccccc1 8.7%
CCOCCCNC(=O)C(c1ccc(OC)cc1)N(Cc1ccc2c(c1)OCO2)C(=O)c1ccccc1O (centres undefined) 1.19%
CC(=O)N1c2ccc(S(=O)(=O)NCC3CCC(C(=O)Nc4cccc(C)c4C)CC3)cc2CC1C (centres undefined) 1.26%
COc1ccc(N2CC(C(=O)NCc3nnnn3-c3ccc(C)c(C)c3)CC2=O)cc1 (centres undefined) -3.19%
O=C(Cn1c(SCCOc2ccc(Cl)cc2)nc2ccccc21)N1CCCCC1 19.6%
COc1ccc(CCNC(=O)C(=O)NCC(c2ccco2)S(=O)(=O)c2ccccc2)cc1 (centres undefined) -17.7%
COc1ccccc1NC(=O)Cn1c(=O)c(CNc2ccc(C)cc2)cc2cc3c(cc21)OCCO3 -18.9%
CCCOc1ccc(C2CC(=O)Nc3c2c(C)nn3-c2nncc(-c3cccc(OC)c3)n2)cc1OC (centres undefined) 3.6%
COc1cccc(C2=CC(c3cc(Br)ccc3F)n3nnnc3N2)c1 (centres undefined) -23.2%
COc1ccc2cc3cc(C(=O)N4CCN(c5ccccc5F)CC4)oc3nc2c1 9.88%
COC(=O)c1ccc(NC(=O)N2CCN(Cc3cc(=O)n4nc(-c5ccc(C)cc5)sc4n3)CC2)cc1 -2.02%
COc1ccc(-c2noc(-c3ccc(N4CCN(c5ccccc5)CC4)c([N+](=O)[O-])c3)n2)cc1 -8.2%
CC(CNC(=O)CN1C(=O)c2cccnc2Oc2ccc(Cl)cc21)c1ccccc1 (centres undefined) 1.11%
Cc1nc2c(c(C)c1CCC(=O)NCc1ccc(Cl)cc1)c(=O)n(C)c(=O)n2C 13.3%
COc1cccc(OC)c1C(=O)Nc1nc2c(s1)CCc1ccccc1-2 13.5%
Cc1cccc(NC(=O)c2ccc3c(c2)CCN3S(=O)(=O)c2ccccc2)c1C 1.45%
CCn1c(=O)cc(OCC(=O)N2CCN(c3ccc(OC)cc3)CC2)c2ccccc21 -7.69%
COc1ccc(NC(=O)CCNS(=O)(=O)c2cccc3nsnc23)cc1Cl -16.7%
Cc1cccc(-n2c(C)nc3cc(C(=O)NCCC4=CCCCC4)ccc32)c1 5.97%
O=C(NCc1nc2ccccc2[nH]1)c1c(F)cccc1F -6.84%
O=C(CSc1nc(Nc2ccc(F)cc2)c2ccccc2n1)c1ccc(F)cc1 -5.01%
COc1ccc(CCNC(=O)c2cc3sccc3n2Cc2ccc(Cl)cc2)cc1OC -25.1%
CCOc1ccccc1CN1CCc2nc(Nc3ccc4c(c3)OCCO4)ncc2C1 2.74%
O=C(NCCc1ccccc1Cl)c1ccc2c(=O)n(-c3ccccc3)c(=O)[nH]c2c1 -9.69%
CCCS(=O)(=O)N1CC(=O)N(c2ccc(C)cc2)C(C)(C(=O)NC2CCCCCC2)C1 (centres undefined) -2.04%
Cc1cc(C)c2nc(NC(=O)c3ccc(S(=O)(=O)N4CCc5ccccc54)cc3)sc2c1 1.43%
Cc1ccc(CNc2ncnc3onc(-c4ccc(F)cc4)c23)cc1 -7.32%
Cc1oc2ncn(CC(C)C)c(=O)c2c1C(=O)NC(C)c1ccccc1 (centres undefined) -28.8%
O=C(Cn1c(=O)n(Cc2ccc3c(c2)OCO3)c(=O)c2oc3ccccc3c21)Nc1ccccc1F 3.32%
COCCn1c(C)cc(O)c(C(c2ccccc2)N2CCN(c3ccccc3)CC2)c1=O (centres undefined) 6.86%
COc1ccc(-c2nnc(SCC(=O)NC3CCCCC3)nc2-c2ccc(OC)cc2)cc1 -13%
COc1cc(OC)c(NC(=O)N2CCCn3nc(C)cc32)cc1Cl 6.21%
COc1ccc(C(=O)Nc2ccc3c(c2)CCCN3C(=O)c2cccs2)c(OC)c1 -2.06%
Cc1cccc(-n2ccnc2SCC(=O)Nc2cccc3ccccc23)c1C -9.2%
COc1ccccc1CNC(=O)c1cccn1-c1nnc(N2CCCCC2)s1 6.62%
COC(=O)c1c(NC(=O)Cc2coc3cc(C)ccc23)sc2c1CCCC2 0.0792%
COc1ccc(CNC(=O)c2cc(-c3ccc(OC)cc3)nc3n[nH]c(-c4cccc([N+](=O)[O-])c4)c23)cc1 -7.79%
CC(=O)N1CCc2c(sc3c2c(=O)n(-c2ccc(C)cc2)c(=O)n3Cc2c(F)cccc2Cl)C1 1.83%
Cc1ccc(CNC(=O)C2CCN(S(=O)(=O)c3ccc(F)cc3)CC2)cc1 8.41%
COc1cc(CNC(=O)C2CCCCN2S(=O)(=O)c2ccc(F)cc2)cc(OC)c1OC (centres undefined) 2.77%
CCOC(=O)c1c(S(=O)(=O)N2CCCC(C(=O)Nc3ccccn3)C2)c(C)n(C)c1C (centres undefined) 5.12%
CCc1cccc(NC(=O)CN2Cc3ccccc3C2=O)c1 -11.6%
CCOc1ccc(C2CC(=O)Nc3cc4c(cc32)OCO4)cc1OC (centres undefined) 17.9%
CCc1ccc(-n2c(=O)c3sc4ccccc4c3n(CC(=O)N3CCCC3)c2=O)cc1 -17.2%
O=C(CSc1nc2ccsc2c(=O)n1Cc1ccccc1Cl)NCc1ccc(F)cc1 7.77%
Cc1c(Cl)cccc1NC(=O)Cn1cc(C(=O)c2cccs2)c2ccccc21 5.86%
Cc1ccc(C)c(Cn2c(CCCNC(=O)C3CCCCC3)nc3ccccc32)c1 6%
O=C(Nc1cccc(O)c1)c1noc2c1CCc1ccccc1-2 -14.7%
O=C(Nc1c2c(nn1-c1ccc(Cl)cc1)CS(=O)(=O)C2)c1cccc(F)c1 14.2%
CC(C)CN(CC(C)C)S(=O)(=O)c1ccc(C(=O)Nc2sc3c(c2C(N)=O)CC(C)(C)NC3(C)C)cc1 -2.51%
CC(=O)Nc1ccc([C@H](C)C(=O)Nc2ncc(C(C)C)s2)cc1 -0.837%
COc1cc2ncn(-c3cc(OCc4ccccc4S(C)(=O)=O)c(C#N)s3)c2cc1OC -0.105%
Cc1cccc(OCc2ccc(-c3nc(C#N)c(NCc4cccnc4)o3)o2)c1 0.657%
CCC(=O)N1CCc2cc(OC)c(OC)cc2C1COc1ccccc1OC (centres undefined) -6.81%
O=C(CSc1nc(-c2cccc(F)c2)[nH]c1-c1ccccc1)Nc1ccc2c(c1)OCCO2 -6.61%
CCOc1ccccc1NC(=O)c1c(NCc2cccs2)sc2c1CCC(C)C2 (centres undefined) 5.07%
CC(C)c1nn2c(=O)cc(COC(=O)c3ccccc3NC(=O)COc3ccccc3)nc2s1 15.8%
COC(=O)c1ccc(C2c3c(-c4ccccc4O)n[nH]c3C(=O)N2Cc2ccncc2)cc1 (centres undefined) 0.634%
COc1ccc(-c2nc(CNS(=O)(=O)c3ccc(Br)cc3)cs2)cc1 -20.1%
Cc1cc(C)nc(-n2nc(C)c3c2N(C)C(=O)CC3c2ccc(Cl)cc2)n1 (centres undefined) 1.72%
Cc1c(C(=O)Nc2cccc(Cl)c2)oc2ccc(S(=O)(=O)N3CCCCCC3)cc12 9.97%
Cc1ccc(CN2COc3ccc4c(-c5ccccc5)cc(=O)oc4c3C2)cc1 -15%
NC(=O)c1ncn([C@@H]2O[C@H](CO)[C@@H](O)[C@@H]2O)c1O 0.746%
COc1cc(NC(=O)CSc2nc(-c3ccco3)cc(C(F)(F)F)n2)cc(OC)c1OC -12.9%
CCc1cc(C(=O)NCc2ccccc2)no1 15.8%

From PubChem BioAssay AID1963576 (National Center for Advancing Translational Sciences (NCATS), 2024)
